Reference: the supplement of paper PMC11417369
The other results are listed elsewhere or left out.

These sequences were tested on PfSIP2 AP2 domain 1 (GST-tagged) (assay: gcPBM binding intensity (ln(normalized median fluorescence intensity)); higher = stronger DNA binding).
Summary of the method: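 GST-tagged P. falciparum DNA-binding domains, expressed in E. coli (about 25 μg on average), were applied for 1 h to an Agilent 4 × 180k array of primer-extended double-stranded 36-bp intergenic genomic probes plus negative controls. The binding buffer was 1× PBS with 1% milk, 0.2 mg/ml BSA, 0.5% salmon testes DNA and 0.03% Triton X-100. Bound protein was detected with Alexa488 anti-GST antibody and scanned at 488 nm. Binding intensity is the highest Masliner-normalised natural-log median intensity across replicate spots of either probe orientation.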

| Sequence | gcPBM binding intensity (ln) |
| --- | --- |
| TTTTATAAAGGAAAAGCATGCAGACTAAAAGATCAT [TGCATGCA_site150] | 7.1 |
| GAGAGGAACATTATATGTACATATTAATTCTAAAAT [XGTACX_site5433] | 6.88 |
| ACAAATAAGTTTTATACACACATATAAGTAAATACA [CACACA_site4157] | 7.05 |
| TATAGTGATATATACACACACTTGTCTTGTAAAAAT [CACACA_site6594] | 6.93 |
| ACAATATTTTTTTATAAACACACATATATATAAATA [CACACA_site9175] | 7.18 |
| TGTATAAAAATTTATACACACATTTTATATATTTCA [CACACA_site1015] | 6.86 |
| TATTAATTATTATGACATACATATCAGTTATTAAAA [CACACA_negctrl_site600] | 6.83 |
| TAATCCATAAGAAGCACACACATATATATATATTTT [CACACA_site1399] | 7.02 |
| AAATTTATAAAGAACACACACATATATATATATATA [CACACA_site48] | 9.31 |
| TTTCTTTCGAATGCTTCACACATTACTCTTAAATAG [CACACA_site5265] | 7.01 |
| CAAAACCTAATATGTACACACATATACATCACACTT [CACACA_site7480] | 7.24 |
| AAATGTGAACTATAATAATTTCAACGTCTGATATAA [TGCATGCA_negctrl_site440] | 6.76 |
| ATATATATATATATAGTGCACATTTATATAATTATT | 10.6 |
| ATTTTGTTATTATATATATATATATATATATATATA [XGTACX_negctrl_site590] | 9.26 |
| ATTTTAAATTAAATTACACACTACGAATAATATATT [CACACA_site4016] | 6.89 |
| ATATTTCTGTCAAGCACACATAATATTAATATATGT [CACACA_site318] | 7.02 |
| ACATATAAAATATTCACACACAAGTTATAGTTCTCG [CACACA_site3626] | 6.91 |
| AATAAATTATATATCACACATATATATTTATATTTA [CACACA_site5964] | 6.79 |
| AATATAAGAAAAATAACACACACATAAACATATATA [CACACA_site8899] | 7.05 |
| ACATTAAAAAATTGTTTGCACTATATAAAATATTAA [GTGCAC_site9728] | 8.2 |
| TTTCTTTTCTTCTCTATTTTTTTTTCACGGCATTAT [TGCATGCA_negctrl_site484] | 6.76 |
| ATTCATATGAAACACACACACACACCCATAAAAAAA [CACACA_site3246] | 7.13 |

| Sequence | gcPBM binding intensity (ln) |
| --- | --- |
| TCTTTTCAATTTTATATGATCTTAATATTTTATGAA [GTGCAC_negctrl_site294] | 6.76 |
| TTTTTTTTTTTTTACACACACAAAATATTATAGGTA [CACACA_site7209] | 7.04 |
| ATTTTTTACATACTCAAATGTTTTAATTTTTTATAT [CACACA_negctrl_site1213] | 6.99 |
| ATATATATATATTATACACACGCCGAAAAAATAAAA [CACACA_site1551] | 8.28 |
| TTTATTTTATCTAAAAGTACTTAAATTAGTGTATTT [XGTACX_site5696] | 6.93 |
| TTACGAAAAAACAAGAGTACATGATGTTATAAAATA [XGTACX_site1412] | 6.93 |
| CGTTGTAGGGAATGTAGTACAGTTATTATTTTATTA [XGTACX_site2429] | 7.14 |
| TCATACATTTTCAGCCTGCACTTATATTTAATAATA [GTGCAC_site9863] | 7.6 |
| TATATATATAAATACACACACACACCGATATATATA [CACACA_site5408] | 7.96 |
| ATTTCCCCAACGTGGGTGCATATATTTATGTGTGAA [GTGCAC_site9439] | 11.1 |
| TATTAATTATTTTACTGTACTAATAATACTTTTATT [XGTACX_site2179] | 6.92 |
| ATTATATTTTTAAGTACACACATATAAATAAATATA [CACACA_site7682] | 7.43 |
| ATTATGTGAGGTAACTAAATATGTACGTAACGAAGA [CACACA_negctrl_site1400] | 7.39 |
| TAATGTATAATTAATCGTACATTAGATTGTTGTGTT [XGTACX_site52] | 7.04 |
| ATATATATATATGTGTGTACTTAAAAATATAATGCA [XGTACX_site7753] | 9.44 |
| AATTTTTTTTTTTTTTTTTCTTTTGTAATAAACCAT [XGTACX_negctrl_site334] | 6.92 |
| AAAAAAAAAAAACACACACACACACCGAAATATATA [CACACA_site4261] | 7.12 |
| TTCAGCATAAACACTTGTACATATATACTAAAAATT [XGTACX_site7272] | 7.13 |
| TATTAACAAAATTTTTAACACACAAAAAAAAAAAAA [CACACA_site8542] | 6.94 |
| CATAATATATTTTATGCATGCAAAGCAACCTTTTGA [TGCATGCA_site715] | 6.76 |
| TTTTTTGTTATATTTGTGCGCAAAAATTGCTGCTTG | 7.25 |
| TTTGTAAAATAATATCTTTCATGTCCTTACTAATTA [GTGCAC_negctrl_site145] | 6.87 |
